Values come from read counts of a selection and are noisy.
System: NB7
Assay: fold depletion of shRNA, plasmid library share / infected cells without Dox share (9 days) (ratio); higher = more depleted after infection (more toxic, leaky expression from a Tet-inducible vector; NB7 is a neuroblastoma line without caspase-8)
Details: shRNA pool: CD95L ORF + CD95L 3'UTR + Venus libraries
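Note: shRNA barcodes quantified by deep sequencing of PCR amplicons from cellular DNA, counts expressed as percent of each subpool, ratio averaged over two biological duplicates.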

Row | Sequence | fold depletion of shRNA
1 | TTGTATATTCCAAAGTATACT | 0.63
2 | TTGTATTCAGTGAGGGTCTTC | 2.61
3 | TTGTCAGCTACTAATGATGTT | 5.27
4 | TTGTCCTGCTTTCTGGAGTGA | 5.44
5 | TTGTGAAATGAAAACATGTAA | 1.18
6 | TTGTGAAGTACATATTAGGAA | 0.812
7 | TTGTGACCTGAGGATTTAAGG | 2.95
8 | TTGTGATCAATGAAACTGGGC | 1.65
9 | TTGTGATGTTTTTCATGGTTC | 1.07
10 | TTGTTACAGGCACCGAGAATG | 1.96
11 | TTTAACAGGCAAGTCCAACTC | 0.807
12 | TTTAACTCACCTCTCAAGGTG | 0.639
13 | TTTAAGGGATGGAAAAGGAAG | 1.3
14 | TTTAGGCAGATTGAAAAGGAC | 1
15 | TTTATATGTCAACGTATCTGA | 0.998
16 | TTTATGTAGATGTGCATTTTT | 2.11
17 | TTTCAGATACATGGTTGTGAC | 7.16
18 | TTTCAGCTCTTCCACCTACAG | 3.05
19 | TTTCATGGTTCTGGTTGCCTT | 2.76
20 | TTTCCATTATGATTCTTTGTT | 0.655

Row | Sequence | fold depletion of shRNA
21 | TTTCCTATAATATAATAAATA | 0.699
22 | TTTCGGCTTATATAAGCTCTA | 1.26
23 | TTTCTGGAGTGAAGTATAAGA | 0.702
24 | TTTGAATGCTTCCTGACAATC | 2.59
25 | TTTGAGGAATCTCAGACGTTT | 2.33
26 | TTTGAGGTCAAGTAAGAAGAC | 6.24
27 | TTTGGAGAAGCAAATAGGCCA | 0.903
28 | TTTGGGATTCTTTCCATTATG | 0.918
29 | TTTGGTCAAGATTTTGAATGC | 0.636
30 | TTTGTATATTCCAAAGTATAC | 0.531
31 | TTTGTGAAATGAAAACATGTA | 1.82
32 | TTTGTTACAGGCACCGAGAAT | 3.7
33 | TTTTAACTCACCTCTCAAGGT | 1.12
34 | TTTTCCTATAATATAATAAAT | 1.14
35 | TTTTCGGCTTATATAAGCTCT | 0.711
36 | TTTTGAATGCTTCCTGACAAT | 2.42
37 | TTTTGAGGAATCTCAGACGTT | 2.78
38 | TTTTGTGAAATGAAAACATGT | 1.6
39 | TTTTTCGGCTTATATAAGCTC | 2.11
40 | TTTTTGTGAAATGAAAACATG | 1.24

Same assay, conditions: shRNA pool: CD95 ORF + CD95 3'UTR + Venus libraries

Row | Sequence | fold depletion of shRNA
41 | TTGTACTCTTGCAGAGAAAAT | 1.17
42 | TTGTAGATTTTTAATATCTCA | 1.44
43 | TTGTATTAAATGTGAATTTTA | 0.832
44 | TTGTCATACCCCCAAGTTTCT | 2.55
45 | TTGTCTTCTTCTTTTGCCAAT | 0.804
46 | TTGTGAATTCACATAGAAAAC | 1.17
47 | TTGTGACATGTCATGAACCCA | 3.72
48 | TTGTGTGATGAAGGACATGGC | 2.13
49 | TTGTGTTTGGAATTATAAAAT | 2.06
50 | TTGTTTATAACTCTGAGAAGA | 1.03
51 | TTGTTTGGGTGAAGAGAAAGG | 0.907
52 | TTTAAAATCTAGTTGGGAAAA | 0.498
53 | TTTAAATAAGGCTCTACCTCA | 6.31
54 | TTTAAATATCTTTGAAAGTTT | 1.13
55 | TTTAAATCCTGAAACAGTGGC | 1.02
56 | TTTAAGAAATAATATTTATAT | 1.06
57 | TTTAAGATTCTCCTTACTACT | 0.895
58 | TTTAATATCTCATGATTCTGC | 1.14
59 | TTTACCATATTTCTAAACTTT | 0.669
60 | TTTACTGGCTCAAAACTACCT | 16.7
61 | TTTACTGGGTACATTTTATCA | 1.66
62 | TTTATAACTCTGAGAAGATCA | 1.63
63 | TTTATATTTCTGTAAATGTAA | 0.832
64 | TTTATCATTTATTAGCGCTGA | 1.44
65 | TTTATCTGATGTTGACTTGAG | 1.09

Row | Sequence | fold depletion of shRNA
66 | TTTATGTAAAGTATATGTATT | 1.15
67 | TTTATTGGTGTCATATTATAC | 0.81
68 | TTTCAATTGTGAATTCACATA | 1.08
69 | TTTCCCCCACCCCCGAAAATG | 11
70 | TTTCTAAACTTTGTTTATAAC | 1.2
71 | TTTCTAAGATTTAAGATTCTC | 0.647
72 | TTTCTGTAAATGTAAACTGTG | 1.72
73 | TTTCTTCCAAATGCAGAAGAT | 0.855
74 | TTTGAAAAGATTCTTAATAGC | 0.799
75 | TTTGAAAGTTTGTATTAAATG | 0.991
76 | TTTGACTATTATATATGTGTA | 0.728
77 | TTTGAGCAGGAGAGTATTACT | 0.896
78 | TTTGAGTGCAGAATTTAAATA | 1.2
79 | TTTGCAATCAAAGATGATAAA | 0.98
80 | TTTGCACAGTTTATTGGTGTC | 2.99
81 | TTTGCCCCTTGTGTTTGGAAT | 3.03
82 | TTTGCCTCTAAATTACCTCTG | 0.487
83 | TTTGCTGAAATATCAGTTACT | 1.43
84 | TTTGGAATTATAAAATATAGG | 0.596
85 | TTTGGAGATACTAACTGCTCT | 2.3
86 | TTTGGGTGAAGAGAAAGGAAG | 1.72
87 | TTTGTAACTCTACTGTATGTG | 0.846
88 | TTTGTACTCTTGCAGAGAAAA | 0.599
89 | TTTGTAGATTTTTAATATCTC | 1.36
90 | TTTGTATTAAATGTGAATTTT | 0.696

Row | Sequence | fold depletion of shRNA
91 | TTTGTCTTCTTCTTTTGCCAA | 1.95
92 | TTTGTGACATGTCATGAACCC | 21.4
93 | TTTGTTCGAAAGAATGGTGTC | 0.672
94 | TTTGTTTATAACTCTGAGAAG | 0.835
95 | TTTTAAGAAATAATATTTATA | 0.819
96 | TTTTAATATCTCATGATTCTG | 0.881
97 | TTTTACCATATTTCTAAACTT | 0.75
98 | TTTTACTGGGTACATTTTATC | 0.905
99 | TTTTATCATTTATTAGCGCTG | 1.73
100 | TTTTCCCCCACCCCCGAAAAT | 12.7
101 | TTTTCTTCCAAATGCAGAAGA | 0.903
102 | TTTTGAGCAGGAGAGTATTAC | 1.47
103 | TTTTGCCCCTTGTGTTTGGAA | 10.1
104 | TTTTGCCTTGGTGCTCATCTT | 4.8
105 | TTTTGCTGAAATATCAGTTAC | 0.667
106 | TTTTGTAACTCTACTGTATGT | 0.601
107 | TTTTTAATATCTCATGATTCT | 1.51
108 | TTTTTACTGGGTACATTTTAT | 1.88
109 | TTTTTCTTCCAAATGCAGAAG | 1.21
110 | TTTTTGTAACTCTACTGTATG | 0.888
111 | TTTTTTACTGGGTACATTTTA | 0.854
112 | TTTTTTGCCCCTTGTGTTTGG | 1.37
113 | TTTTTTGTAACTCTACTGTAT | 0.973
114 | TTTTTTTGTAACTCTACTGTA | 1.82

From the supplement of paper PMC5655136
